According to article PMC12136788:
The list shows a part of the results.

T1: UNK ZnF1-3 (human, UniProt Q9C0B0 31-174)
T1 sequence: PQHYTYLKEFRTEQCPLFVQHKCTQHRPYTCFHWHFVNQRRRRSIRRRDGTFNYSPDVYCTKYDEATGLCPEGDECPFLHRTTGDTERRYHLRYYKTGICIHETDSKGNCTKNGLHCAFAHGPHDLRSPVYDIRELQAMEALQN

B1: chr7:140404665:140404666:+_ENSG00000090266_ENST00000247866|hu_hu|hu_hu_hu_mus_False|28_108 (ssRNA)
RNA: GGGAGUUCUACAGUCCGACGAUCUGCGUACAGAGUGCCAGAGAGUUUACAGUGUCAGUCCUCGUCAUCAGGAGGGAUUCCCAGUUCUUCAUCUGUCCACUGUGAAGGAUCAGGAUAUGAAAAGUGACCCAGCACAGCAUCCGACAACAGAGGAUUGAGCAUCA
B2: chr2:31148120:31148121:+_ENSMUSG00000062661_ENSMUST00000000199|mus_mus|FALSE|FALSE (ssRNA)
RNA: GGGAGUUCUACAGUCCGACGAUCCAGUAUCCUUUAGAACAGAAGGUAGUUUGUUUUCUUUUACAAUGUCCGUUUGAAAUAAAAAAAGAAAGCACACAGGCCGGACAGCAGGAAGAAUGGGGUGGCUGCCGAGGGAGACAGCCGCAACAGAGGAUUGAGCAUCA
B3: chr7:63240916:63240917:-_ENSMUSG00000047037_ENSMUST00000052204|mus_mus|FALSE|FALSE (ssRNA)
RNA: GGGAGUUCUACAGUCCGACGAUCUAGCAGACAGCCCAACUUGCCCAAGAUGUUGAGCUUUUCCUUCAGAAGGUAAGAAGCUAAAAUGGACCCAAACGGUACUCCAAGGGCACCUAAGGGAGUCACCAGGACUGUAGGGACCGCCAACAGAGGAUUGAGCAUCA
B4: chr7:31307748:31307749:-_ENSMUSG00000036882_ENSMUST00000044338|mus_mus|motif|central (ssRNA)
RNA: GGGAGUUCUACAGUCCGACGAUCUCUGUACAAGGAUCCUCGGACCUCCCCUCCCCUCCCAUAGGAUGGUGGAGCUGGCCGGUAGAGCAGAAAAGGUUCGGGGGAACCCCAAGGUCCAGGCACCCGAUGGGGAGUAUGUGGACCCAACAGAGGAUUGAGCAUCA
B5: chr7:138713503:138713504:-_ENSG00000146858_ENST00000275766|hu_mus|FALSE|FALSE (ssRNA)
RNA: GGGAGUUCUACAGUCCGACGAUCUUUCUCUUCAAGCAUCUUGUGCAACUUCUUAUGUCUGUAGACAGAGAUUAUCUGGAAAUUCACGACGCUUGAAACACUAAGUUCUUGGUCCUCUAGCAACUUGAGGGUGGCAGCAUGGAUCAACAGAGGAUUGAGCAUCA
B6: chr18:61067831:61067832:-_ENSG00000119541_ENST00000238497|hu_hu|motif|central (ssRNA)
RNA: GGGAGUUCUACAGUCCGACGAUCAGAAACAAGAUCAGAGGAAGAUAUUGAAAAAAAUGUUGAGUUGUUGGCUUCUGUUGCGGCAGCUUUGGCUAAGUAGGACUUUCCUGUUCCAGGCGGCCCAAAUAAUAGGAUUCCCCUCCACAACAGAGGAUUGAGCAUCA
B7: chr14:35505469:35505470:+_ENSMUSG00000041408_ENSMUST00000048263|mus_mus|motif|central (ssRNA)
RNA: GGGAGUUCUACAGUCCGACGAUCCUGGAUGGUAACAUUACACACUGACAAGCAAGAUGGAUGUAAAACAGUGUAAUCUCGGGUCCGUCCAACUGUUCCUCGAAAACUGGUCCCACAACUUGCACUACCUUUCUUUGCCUGAUUCAACAGAGGAUUGAGCAUCA
B8: chr9:21333030:21333031:-_ENSG00000198642_ENST00000537938|hu_mus|FALSE|FALSE (ssRNA)
RNA: GGGAGUUCUACAGUCCGACGAUCAAGGGGAUGAACAAGACCACCCAUGAUACACUGAAAAGGUAUUACACCUUGGAUCUAAGAAUGAUCUGAAGGUGCUGAAAGAGGUGAUUCUCUAGAAGGUGACCCAGGGUUUUCUUCAGGCAACAGAGGAUUGAGCAUCA
B9: chr4:88366173:88366174:-_ENSMUSG00000070923_ENSMUST00000094993|mus_mus|FALSE|FALSE (ssRNA)
RNA: GGGAGUUCUACAGUCCGACGAUCUGGAAAAACUGUGAGAGUGCAAGCCCGAAUGCCACCCAGCGACUCAGGAAGAUCAAAAACUUUAUGCCACUCGUCUUUUUCUGGGUCAUAUUUCUGGACAAUUUCUACCAUGCACCGGUUCAACAGAGGAUUGAGCAUCA
B10: 134010568_134014158_378_CDS_ENSG00000166086_ENST00000529443|human|control|control (ssRNA)
RNA: GGGAGUUCUACAGUCCGACGAUCUUCUGCACGACCCGCCAAGUCUCCCUGAAUUUUGUUGUCAAAAAACACAUAUGUGGUUUGUUCAUCUUGAAUUUUCUUCCACUCGAUCCUGGGGUCACUUGUCUGCGAAUCCGUAAUGAUCAACAGAGGAUUGAGCAUCA
B11: chr4:148551591:148551592:-_ENSMUSG00000063077_ENSMUST00000060537|mus_hu|mus_mus_mus_hu_False|18_48 (ssRNA)
RNA: GGGAGUUCUACAGUCCGACGAUCACCUGACAAAAUUAAAUAUCCCUGUAAAUUAGACAAUAAGCAGCAGGCAACAAAGUCUUUGCUUUGAAAUAUGUGCCAGGAAAAGUCAUCUUGUAGACCCCAAUCAAGAGACAGUUCACACAACAGAGGAUUGAGCAUCA
B12: chr19:8913615:8913616:-_ENSMUSG00000071658_ENSMUST00000096259|mus_hu|mus_mus_mus_hu_False|28_78 (ssRNA)
RNA: GGGAGUUCUACAGUCCGACGAUCAGGGUACCAAAACCUUCUGCCUGAAAUGGGUGCCCCACCCUGCAGGGAGUUGCAGCUGAAAGUAUCUGAUGCAGAAGCAGUGAAUGCAGAGAAGGAGGCCCCUGGGGAGGGCCAGGCCAGCAACAGAGGAUUGAGCAUCA
B13: chr4:88367131:88367132:-_ENSMUSG00000070923_ENSMUST00000094993|mus_hu|FALSE|FALSE (ssRNA)
RNA: GGGAGUUCUACAGUCCGACGAUCUUGGUAAUUGCUAGCUUCCAAAAGCAAAUUCACGCAGGUAUUGUCUGUUCUCAUGAAAUCUACUGUCUGCACGUAAUUGAUGAGAUCCUGUGGUGUCAUCAGUGGAAAUCGAAUAUUCUUCAACAGAGGAUUGAGCAUCA
B14: chr10:75834556:75834557:+_ENSG00000035403_ENST00000372755|perfect_dup|motif|central (ssRNA)
RNA: GGGAGUUCUACAGUCCGACGAUCGUUAAUUUCAGCACUCAUCUUUUCUACAGUAAAAUUUCGAUUUUUCAAAGCUUCUUCGGUUCCUUGGUUUUUUGAGUUUUUGGUUGUAACAAAAAUCUUCAUAGCUGAAAUGAGAACAGGCAACAGAGGAUUGAGCAUCA
B15: chr12:39756943:39756944:-_ENSG00000139116_ENST00000544797|hu_mus|hu_hu_hu_mus_False|8_48 (ssRNA)
RNA: GGGAGUUCUACAGUCCGACGAUCGGUUUGGCUGUUACCCCCAAGGGAAUCCUGCAAGAGUCUUGUCAGCUUAGAGUCUCUGUAAGGGACAUGUGUGGCUCUCUUGCUCUUGUCCCCCAAGGCGCUGAUUACAUUGCCAAGAGCCAACAGAGGAUUGAGCAUCA
B16: chr1:149875238:149875239:-_ENSG00000159164_ENST00000369146|hu_hu|motif|central (ssRNA)
RNA: GGGAGUUCUACAGUCCGACGAUCUUUUGUUAUUUUCACUUUUUUCCUUUUAACAUUUUUUUAAACAUUUUACAAACAUCGGAAAACGGCAACACGUCACAGCUACAGUGGGGUGAGGGGAGGGCACCAAAGAAAGCAGCCACACAACAGAGGAUUGAGCAUCA
B17: 30634669_30638441_433_CDS_ENSG00000106105_ENST00000389266|human|control|control (ssRNA)
RNA: GGGAGUUCUACAGUCCGACGAUCAUCUUCUUUGAGUUUUCGCACAAGAUCUCCCUGCUGGCGCACUGCUAGCCUCAGAGGUGCCAGCACCUCCUCAGCCCCCGCGCCGUCCAUGCUGCUCCGGGAGGCGGCGGCGGGCAAGGACAACAGAGGAUUGAGCAUCA
B18: chr7:151048522:151048523:+_ENSG00000013374_ENST00000566856|hu_mus|hu_hu_hu_mus_True|88_108 (ssRNA)
RNA: GGGAGUUCUACAGUCCGACGAUCCUGCUUCUUAUUUAUUACGAUCUUGAUAUAAUUUUCUUGAAAUCCGAAAGUUUCAGCUAUUUGACACCUCAGGUCUCUACCAGUGACAUGCAAGCGGGUCUCCAACAAGCUUUUCUUAUCCAACAGAGGAUUGAGCAUCA
B19: chr3:37096630:37096631:-_ENSG00000093167_ENST00000421276|perfect_dup|motif|central (ssRNA)
RNA: GGGAGUUCUACAGUCCGACGAUCUUGCUCCAAGGUAGUUAUAUCCUGUUCUGCUUUUGAAAGCUUAAAUUUGUAUUCGCGGAUUUGUCUAUUGGCAUCUCUCUGCAUUUCGAUGAACUGCAAGUCUGAGCCAUUCUGCAGUCCCAACAGAGGAUUGAGCAUCA
B20: chr12:32445735:32445736:+_ENSMUSG00000035933_ENSMUST00000036862|mus_hu|FALSE|FALSE (ssRNA)
RNA: GGGAGUUCUACAGUCCGACGAUCUCGGGCUCUUGCAAUAAAAAGUAGAUCAUUUUCUAUCACUUCUAUUCCAGAAAGAUCUAUUCCUUGAGAAAGAUAAUCAAGUUCAUUGAGACUCUGAGCAGCUUUUGUUAUCUCUCUACUCAACAGAGGAUUGAGCAUCA
B21: chr22:32879901:32879902:+_ENSG00000100225_ENST00000397426|hu_mus|hu_hu_hu_mus_False|8_38 (ssRNA)
RNA: GGGAGUUCUACAGUCCGACGAUCCUCUUCCAUACUCAUGGCAUCCUGAAUUGACUCAGCUUCAACAUUUUGACUAGGCCCUUCCAUACUGUCAUCAUUCCAAACACCAAAUGGGGUGGCCUGUCCUUGGAAUGAAUCAGUCCCCAACAGAGGAUUGAGCAUCA
B22: chr6:31458560:31458561:+_ENSMUSG00000025609_ENSMUST00000026699|mus_hu|motif|central (ssRNA)
RNA: GGGAGUUCUACAGUCCGACGAUCUAAACGGGAGCCCUGGUUCUGCAGAGCUCUUCUGGACGAAAGAGUCAUUUUCUCCGGAAAUUGCUAUUAAGAUAUUAUUCACUACUAGAUCCCUCCUGCUGGUCACUUUUAGAAUGGCUCCAACAGAGGAUUGAGCAUCA

Molecular target: T1, UNK ZnF1-3
Assay: nsRBNS (natural sequence RNA bind-n-seq); RBNS binding buffer (assumed for nsRBNS): 25 mM Tris pH 7.5, 150 mM KCl, 3 mM MgCl2, 0.01% Triton X-100, 500 ug/ml BSA, 20 U/ml SUPERase-In, 4 C; UNK is unkempt and MSI1 is Musashi-1; names of the RNAs are library labels; protein concentration not given here; high values mean tight binding

**Q.** With B1 as the binder, how does the binding signal read?
**A.** Its binding signal is 1.01 enrichment R.

**Q.** B2 was tested. Which binding signal did it give?
**A.** The binding signal was 1.71 enrichment R.

**Q.** How did the binding signal turn out when B3 was run?
**A.** Its binding signal is 0.997 enrichment R.

**Q.** How did the binding signal turn out when B4 was run?
**A.** The binding signal was 0.843 enrichment R.

**Q.** With B5 as the binder, how does the binding signal read?
**A.** The binding signal was 0.819 enrichment R.

**Q.** With B6 as the binder, how does the binding signal read?
**A.** Its binding signal is 2.63 enrichment R.

**Q.** Which binding signal does the source give for B7 here?
**A.** The binding signal was 0.902 enrichment R.

**Q.** With B8 as the binder, how does the binding signal read?
**A.** Its binding signal is 1.29 enrichment R.

**Q.** For B9, which binding signal is on record?
**A.** Its binding signal is 0.786 enrichment R.

**Q.** How did the binding signal turn out when B10 was run?
**A.** Its binding signal is 0.639 enrichment R.

**Q.** Which binding signal does the source give for B11 here?
**A.** The binding signal was 1.42 enrichment R.

**Q.** Which binding signal does the source give for B12 here?
**A.** Its binding signal is 1.86 enrichment R.

**Q.** With B13 as the binder, how does the binding signal read?
**A.** The binding signal was 0.689 enrichment R.

**Q.** With B14 as the binder, how does the binding signal read?
**A.** The binding signal was 0.958 enrichment R.

**Q.** With B15 as the binder, how does the binding signal read?
**A.** The binding signal was 0.639 enrichment R.

**Q.** Which binding signal does the source give for B16 here?
**A.** Its binding signal is 1.7 enrichment R.

**Q.** How did the binding signal turn out when B17 was run?
**A.** The binding signal was 0.124 enrichment R.

**Q.** For B18, which binding signal is on record?
**A.** The binding signal was 1.01 enrichment R.

**Q.** For B19, which binding signal is on record?
**A.** The binding signal was 0.553 enrichment R.

**Q.** B20 was tested. Which binding signal did it give?
**A.** The binding signal was 0.798 enrichment R.

**Q.** How did the binding signal turn out when B21 was run?
**A.** Its binding signal is 1.04 enrichment R.

**Q.** How did the binding signal turn out when B22 was run?
**A.** Its binding signal is 0.68 enrichment R.
